# According to article PMC12040169 (PLOS Biology, 2025):
# Some of the results follow.
# System: T1, C. trachomatis L2/434/Bu expressing GFP (CTL2-GFP)
# T1 construct: L2/434/Bu GFP intracellular growth in HeLa cells
# Set-up: species or system HeLa; C. trachomatis total inclusion area by high-content imaging, normalised to DMSO
# Details: total inclusion area; 28.5 h, 10 µM; inhibitor
# Outline: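 High-content imaging followed the bulk GFP/resorufin measurement: fixed, Hoechst-stained cells were scored for GFP inclusions and host nuclei per well. Total inclusion area and count served as growth proxies, nuclei number as the viability proxy. MIC calculation matched the bulk assay.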
row,SMILES,% of control remaining
1,FC(F)(F)c1cccc(CN2CCC(N3CCCCC3)CC2)c1 [CBK261855],107.873
2,Cc1nc(C2CCN(C(=O)CCC3CCCO3)CC2)c2sccn12 (stereo not drawn) [CBK282240],87.0512
3,CCC(C)(C)C1CCc2c(sc(NC(=O)CN3CCOCC3)c2C#N)C1 (stereo not drawn) [CBK270048],80.0317
4,COc1ccc(NC(=O)c2csc(Nc3ccccc3)n2)cc1OC [CBK287840],104.612
5,CC(=O)Nc1ccc(NC(=O)CC2(CC(=O)O)CCCC2)cc1 [CBK296931],63.3184
6,CCOc1ccccc1CCNS(=O)(=O)c1ccc(Cl)c(Cl)c1 [CBK043610],77.9879
7,CCn1c2cc(C)oc2c2cnn(CC(=O)N3CCCCC3)c(=O)c21 [CBK284220],102.939
8,Cc1noc(C)c1NC(=O)c1ccc2ccccc2n1 [CBK200309],78.6361
9,CC(C)(C#N)c1ccccc1CN1CCCCC1c1[nH]ncc1C(N)=O (stereo not drawn) [CBK304740],112.012
10,CNC(=O)c1ccc(-c2ccc(C)c(C)c2)nc1NCCOC [CBK105999],104.864
11,O=C(Nc1ccc2oc(-c3cccnc3)nc2c1)c1ccc(-c2ccc(OC(F)(F)F)cc2)o1 [CBK107713],70.3749
12,CCNc1nc(C#N)nc(Nc2ccccc2)n1 [CBK027733],70.2291
13,COc1ccc(NC(=O)CCCSc2nc(N)c3c(C)c(C)sc3n2)cc1 [CBK266547],117.155
14,O=CN1CCc2c([nH]c3ccccc23)C12CCN(CCCN1C(=O)C3CCCCC3C1=O)C2 (stereo not drawn) [CBK039592],86.6022
15,COCCOc1ccc(-c2noc([C@@H]3CCCN3)n2)cn1 [CBK288883],104.101
16,COc1ccc(-c2csc(N3CCN(C)CC3)n2)cc1F [CBK305910],25.5307
17,Cc1ncccc1OC1(C(=O)NCc2cn3c(n2)SCC3)CCNCC1 [CBK307649],59.0204
18,CSc1nc(Cl)c(-c2ccccc2)c(N(C)C)n1 [CBK023169],80.7136
19,COc1ccc(S(=O)(=O)N(C)CC(=O)Nc2ccccc2C(F)(F)F)cc1OC [CBK266159],108.759
20,O=C(NCc1cccc(C(F)(F)F)c1)N1CCN(c2cc(C(F)(F)F)ccn2)CC1 [CBK156435],108.627
21,COc1ccccc1NC(=O)c1[nH]nc(O)c1Cc1c(Cl)cccc1Cl [CBK107846],91.4886
22,O=C(NCc1cccnc1)C1CCC(Cn2c(=S)[nH]c3ccccc3c2=O)CC1 (stereo not drawn) [CBK266678],83.699
23,CC1=CCC(C(=O)O)C(C(=O)Nc2ccccc2NC(=O)c2ccc(C(F)(F)F)cc2)C1 (stereo not drawn) [CBK265794],77.4618
24,O=C(CSc1nnc(Cc2ccccc2)o1)Nc1c(Cl)cc(Cl)cc1Cl [CBK266119],126.227
25,CC(=O)Nc1ccc(-c2nc3ncccc3o2)cc1C [CBK288132],84.0941
26,CC(C)NC(=O)[C@H]1CN(C(=O)c2cc[nH]n2)C[C@@H]1c1ccnc(N2CCCC2)n1 [CBK285526],81.7307

row,SMILES,% of control remaining
1,CCc1nc2ccc(C(=O)NC3=NN(c4ccccc4)C(=O)C3)cn2c1N(C)Cc1cccs1 [CBK145557],93.2572
2,O=C(O)C(Cc1ccccc1)N1C(=O)/C(=C/c2ccc([N+](=O)[O-])cc2)SC1=S (stereo not drawn) [CBK263108],109.355
3,Cc1ccc2c(c1)-c1c(ssc1=S)C(C)(C)N2C(=O)COc1nc2ccccc2s1 [CBK262682],82.3967
4,O=C(Nc1ccc(S(=O)(=O)Nc2ncccn2)cc1)c1ccc(Cl)c([N+](=O)[O-])c1 [CBK263739],87.3913
5,Cc1n[nH]c(NNC(=O)COc2ccc(Cl)cc2)c1[N+](=O)[O-] [CBK261478],107.5
6,CCCSc1nnc(-c2ccccc2NC(=O)CC)c(O)n1 [CBK265081],110.686
7,CN1CCN(CCCCOc2ccc(Cc3ccccc3)cc2)CC1 [CBK269692C],86.1303
8,CCc1nnc(NS(=O)(=O)c2ccc(NC(=O)c3ccc(Cl)cc3Cl)cc2)s1 [CBK045493],82.9447
9,COc1ccc(S(=O)(=O)N(C)CC(=O)Nc2ccc(Br)cc2F)cc1Cl [CBK267916],96.662
10,Cn1ncc2c(C(=O)O)cc(-c3ccccc3)nc21 [CBK288024],105.189
11,C#CCNC(=O)[C@@H]1Cc2cn(Cc3cc(C)on3)c3cccc(c23)[C@H](CC(C)C)N1 [CBK289426],107.324
12,O=C(CSc1nnc(-c2ccncc2)n1-c1ccccc1)c1ccc(Br)cc1 [CBK266758],97.5519
13,C=CCn1c2cc(C)sc2c2cnn(CCC(C)=O)c(=O)c21 [CBK282868],87.1132
14,Cc1cc(OC(C)C(=O)NCc2ccccn2)ccc1Cl (stereo not drawn) [CBK269617],76.5701
15,O=C(CCS(=O)(=O)c1ccc(Br)cc1)OCC(=O)c1ccccc1 [CBK021886],95.4262
16,CN1CCN(Cc2nc3c([nH]2)c(=O)n(C)c(=O)n3C)CC1 [CBK269578],72.8338
17,CCS(=O)(=O)N1CCC(c2onc3c2CCCCC3)CC1 [CBK284497],78.5139
18,CN1CCN(CCCOc2ccccc2OCc2ccccc2)CC1 [CBK269630C],61.7726
19,O=C(CCC(=O)c1ccc(Cl)cc1)OCC(=O)c1cccc(I)c1 [CBK264760],102.384
20,CCOC(=O)CN(Cc1ccccc1)Cc1cccc(OC)c1 [CBK126459],73.3068
21,Cc1csc(C(Cc2cccs2)NC(=O)C2CCC(=O)N2)n1 (stereo not drawn) [CBK285056],109.009
22,C=CCn1c(N2CCC(C(=O)NC3CC3)CC2)nc2ccccc21 [CBK283924],95.655
23,O=C1CN(C(=O)c2cccc(Cl)c2)c2ccccc2N1 [CBK017844],62.9485
24,Nn1c(SCC(=O)Nc2ccc3c(c2)oc2ccccc23)nnc1-c1ccc(Cl)cc1Cl [CBK265090],113.971
25,CC1CC(C)CN(C(=O)c2ccccc2NC(=O)C2CC(=O)Nc3ccccc32)C1 (stereo not drawn) [CBK297760],111.934
26,CNC(=O)C1(Cc2ccc(-c3ccccc3)cc2)CCN(C(=O)c2ccccc2OC)CC1 [CBK285767],100.114

row,SMILES,% of control remaining
1,COc1ccc(C(NC(=O)N2CCN(C(=O)OCc3ccccc3)CC2)c2ccccc2C)cn1 (stereo not drawn) [CBK081469],97.7345
2,Cc1cc(N2C(=O)c3ccc(C(=O)O)cc3C2=O)ccc1NC(=O)c1cccs1 [CBK265415],111.779
3,Cc1cc(NC(=O)CC2CCCCC2)nc2c1c(=O)oc1ccccc12 [CBK291151],110.856
4,CN(C)CCN(Cc1ccncc1)Cc1ccc(F)cc1F [CBK283094],97.3164
5,O=C(O)CC1(CC(=O)N2CCN(C(c3ccccc3)c3ccccc3)CC2)CCCC1 [CBK086174],102.773
6,Cc1nc(-c2ccc(Cl)cc2)sc1C(=O)N1CCCC(C(=O)O)C1 (stereo not drawn) [CBK304407],53.6296
7,O=C(Nc1ccccc1N1CCNCC1)c1ccoc1 [CBK029442T],114.847
8,CCOC(=O)c1cccc(NS(=O)(=O)c2ccc(Br)cc2)c1 [CBK034346],65.7991
9,Cc1cc(-c2ccccc2)nn1C(CC(=O)O)C(=O)O (stereo not drawn) [CBK263480],46.9723
10,Cc1c(N)c(=O)n2nc(C(F)(F)F)nc2n1C [CBK020172],102.849
11,Cc1cc(NS(=O)(=O)c2ccc(NC(=S)NC(=O)C(C)(C)C)cc2)no1 [CBK268877],38.7909
12,O=S(=O)(c1ccc(F)cc1)N1CCN(c2ncnc3scc(-c4ccccc4)c23)CC1 [CBK264864],118.939
13,CCNc1cccnc1N(CC)C1CCN(C(=O)c2cc3cc4c(cc3[nH]2)OCO4)CC1 [CBK016815],102.016
14,CCNC(=O)Nc1ncc(-c2ccc(OC(F)(F)F)cc2)c2cccnc12 [CBK070690],90.5766
15,O=C(O)C1CCC1C(=O)N1CCN(c2ccc(C(F)(F)F)cn2)CC1 (stereo not drawn) [CBK057147],89.3042
16,CCOc1ccc(S(=O)(=O)N(C)CC(=O)N2CCN(C)CC2)cc1 [CBK269953],40.0904
17,CNS(=O)(=O)c1ccc(NC(=O)c2cc(-c3cccnc3)nc3ccc(Br)cc23)cc1 [CBK267776],102.785
18,CC(=O)Nc1ccc(C(=O)N/C(=C/c2ccccc2)C(=O)O)cc1 [CBK265353],86.5493
19,O=C1CCC(=O)N1CCn1c(=O)n(S(=O)(=O)c2ccc(-c3ccccc3)cc2)c2ccccc21 [CBK106494],101.475
20,COc1ccc(C(CC(=O)c2ccc(C)cc2)Nc2ccc([N+](=O)[O-])cc2)cc1 (stereo not drawn) [CBK268187],81.4695
21,Cc1cc(C(=O)NC2CCCOC2)c2cccc(Cl)c2n1 (stereo not drawn) [CBK282459],126.287
22,CC(=O)c1cc(C(=O)Nc2cnn(Cc3ccc(F)cc3)c2)cs1 [CBK282528],99.4891
23,CN(Cc1ccc2ncccc2c1)C(=O)C1CN(S(=O)(=O)c2ccc(F)cc2)C1 [CBK285943],88.0653
24,COc1ccc(C(=O)N2CCC(C)CC2)cc1[N+](=O)[O-] [CBK074341],92.6829
25,CC1CCCN(C(=O)CCn2c(C(F)F)cc3cccnc32)C1 (stereo not drawn) [CBK285025],92.7075
26,C(=N/OCc1ccccc1)/c1c[nH]c2ccccc12 [CBK168629],79.6894
